What is called % Inhibition is the relative decrease from the control value, in per cent.

The structures appear in SMILES notation. Among all 150,000 compounds or so, about 540 (0.36%) showed an effect of 50% or more. The list shows a part of the results.

The test system of this test is Plasmodium falciparum. In words: Primary screen in NF54 nanoGlo assay, in single point, at 2uM, 72h; a lower Z score goes with more inhibition. The test is classed as functional, Erythrocyte. As to conditions: timepoint 72 hour.
On to `CC(C)N(C(C)C)S(=O)(=O)c1ccc(O)nc1`, for which the “% Inhibition” value is on record as -19% and the Z score was determined as 2.4.
For `Cc1cc(C)c(C(=O)N[C@@H]2CCC[C@@H]2Oc2cn[nH]c2)s1`, the “% Inhibition” value was -6% and the Z score was 0.98.
Consider `COc1cc(C(=O)Nc2c(C(=O)N3CCOCC3)oc3ccccc23)ccc1OC(F)F`, for which the “% Inhibition” value was -7% and the Z score is 0.81.
With `Cc1ccc(-c2nc(CCNC(=O)c3ccc(S(=O)(=O)N4CCOCC4)cc3)n[nH]2)cc1`, the “% Inhibition” value is reported as -17% and the Z score stood at 3.25.
Turning to `Cc1ccc(NC(=O)Nc2ccc3nc4n(c(=O)c3c2)CCCC4)c(C)c1`, the “% Inhibition” value came out at 5% and the Z score was -0.58.
The like results for `O=C1NC[C@@]2(CCCN(C(=O)Cc3ccc(Cl)c(Cl)c3)C2)O1` were, in that order, 2% and -0.43.
Consider `CCN1CCC(Nc2ccc(-c3cc[nH]n3)cc2)CC1`, for which the “% Inhibition” value is -8% and the Z score is 1.6.
The like results for `C[C@@H](Cn1cncn1)NC(=O)CN1CCOc2ccc(Cl)cc21` were, in that order, -10% and 1.49.
On to `C[C@@H](C(=O)N1CCOCC1)N1CCN(c2ncccc2F)CC1`, for which the “% Inhibition” value was -6% and the Z score was 0.56.
As to `CCC(C(=O)N1CCN(C2=Nc3ccccc3Oc3c(OC)cccc32)CC1C)c1ccccc1` (stereo unspecified), the “% Inhibition” value is given as -13% and the Z score is listed as 1.18.
Take `CCOc1ncccc1C(=O)NC[C@@H](c1ccco1)N1CCCC1`: the “% Inhibition” value was found to be 10% and the Z score is listed as -1.95.
For the compound `CC[C@]1(N2CCN(C(=O)c3ccc(F)c(Cl)c3)CC2)CCN(S(C)(=O)=O)C1`, the “% Inhibition” value is given as 12% and the Z score is recorded as -1.21.
Take `O=C(Nc1ccncc1)NC1CCOC1c1ccc(Cl)cc1` (stereo unspecified): the “% Inhibition” value is -2% and the Z score is given as 0.41.
For `COc1ccc(CCn2nc(C(=O)N(C)C)c3c2CCN(C(=O)c2[nH]nc4c2CCCC4)C3)cc1`, the “% Inhibition” value was -10% and the Z score is 1.34.
With `CC[C@@H](CO)N(Cc1ccccc1C)Cc1[nH]cnc1C`, the “% Inhibition” value came out at 0% and the Z score came out at 0.06.
With `Cc1cn2nc(C(=O)NCCc3ccc(S(N)(=O)=O)cc3)cc2c(=O)[nH]1`, the “% Inhibition” value is reported as -18% and the Z score worked out at 3.38.
Regarding `Cc1nc(N)nc(C)c1CC(=O)N1CC[C@](C)(O)[C@H](C)C1`, the “% Inhibition” value is listed as -7% and the Z score was 1.27.
Regarding `COC(=O)N1CCC[C@H](NC(=O)C(=O)Nc2ccccc2)C1`, the “% Inhibition” value is -14% and the Z score is reported as 1.75.
The like results for `Fc1ccc(N2CCN(c3nc4c(c(C(F)(F)F)n3)CCCCC4)CC2)cc1` were, in that order, 24% and -2.37.
Regarding `O[C@H](COc1ccccc1)Cn1cc(-c2ccccc2F)cn1`, the “% Inhibition” value is -6% and the Z score is on record as 0.81.
`C[C@H]1CN(C)c2ccccc2CN1C(=O)NCc1nc2ccccc2n1C1CC1`: the “% Inhibition” value is on record as -11% and the Z score was 1.82.
The like results for `O=C(Nc1ccc2c(c1)OCCCO2)c1ccc(S(=O)(=O)N2CCCC2)cc1` were, in that order, -21% and 3.31.
For `O=C(C1CNCCO1)N1CCCC1c1ccc(Cl)cc1` (stereo unspecified), the “% Inhibition” value worked out at 4% and the Z score is recorded as -0.55.
For the compound `O=C(Cc1ccccc1)N(Cc1cccnc1)C1(C(=O)Nc2ccc(N3CCOCC3)cc2)CCC2Cc3ccccc3CC2C1` (stereo unspecified), the “% Inhibition” value amounted to 20% and the Z score is -2.49.
For the compound `COc1ccc(NS(=O)(=O)c2ccc(NC(=O)c3cc(C)n(-c4cccc(C)c4)c3C)cc2)cc1`, the “% Inhibition” value was determined as 22% and the Z score was -2.84.
On to `CC(c1nccs1)N(C)C1CCC(=O)N(Cc2cc3c(cc2Cl)OCO3)CC1` (stereo unspecified), for which the “% Inhibition” value is -10% and the Z score was 1.3.
On to `COc1cc(-n2cnnn2)c(Cl)cc1C(=O)N1CCOCC1`, for which the “% Inhibition” value amounted to 0% and the Z score is recorded as 0.08.
In the case of `Cc1ccc(Cn2c(C)c(N3CCOCC3)c(C)c2C(=O)N2CCN(c3ccccc3F)CC2)cc1`, the “% Inhibition” value was -13% and the Z score is reported as 1.25.
With `COc1ccc(CCNC(=O)CN2C[C@H]3CC[C@H]2C3)cc1`, the “% Inhibition” value is reported as 2% and the Z score is -0.2.
As for `Cn1cccc(C(=O)NCC2CCN(c3nc4ccccc4o3)CC2)c1=O`, the “% Inhibition” value is on record as -9% and the Z score is 1.33.
With `Cc1cc(C(=O)NCCN2CCOCC2)nc(C)n1`, the “% Inhibition” value is reported as -14% and the Z score stood at 2.
In the case of `COC(=O)C1(CNC(=O)c2cscn2)CCCCC1`, the “% Inhibition” value is -6% and the Z score is 0.93.
`C[C@H]1CC(=O)Nc2ccccc2N1C(=O)CNc1ccccc1CN1CCC(CO)CC1`: the “% Inhibition” value is listed as -6% and the Z score is on record as 0.89.
Take `Cn1nc2cccc(NC(=O)N3CCS(=O)(=O)CC3)c2n1`: the “% Inhibition” value is on record as -1% and the Z score was found to be 0.16.
For the compound `CC1CC1c1nc(C#N)c(N2CCOCC2)o1` (stereo unspecified), the “% Inhibition” value is reported as -6% and the Z score is recorded as 1.07.
The corresponding values for `CN(C[C@H]1CCCN1Cc1ccncc1)C(=O)OC(C)(C)C` are -13% and 1.3.
The like results for `O=S(=O)(C1COC1)N1CCO[C@H](c2cccs2)C1` were, in that order, -12% and 1.57.
As for `COc1ccccc1C(=O)N1CCCC[C@H]1c1nnc(-c2ccncc2)[nH]1`, the “% Inhibition” value is reported as -7% and the Z score is 1.32.
Take `O=S(=O)(C1CC1)N1CC[C@H](O)C(F)(F)C1`: the “% Inhibition” value was -5% and the Z score turned out to be 0.85.
As to `Cc1cc(-n2cc3c(c2-c2ccc(F)cc2)c(=O)n(C)c(=O)n3C)no1`, the “% Inhibition” value is recorded as 33% and the Z score is given as -3.79.
Take `COc1cccc(CNC(=O)c2cnn3c4c(cnc23)C[C@@H](C)CC4)c1`: the “% Inhibition” value amounted to 0% and the Z score was determined as 0.03.
Consider `COCCC(=O)NC[C@@]12CCCC=C1NC(=O)CC2`, for which the “% Inhibition” value is listed as -9% and the Z score amounted to 1.23.
Take `Cc1ccc(-c2cn[nH]c2[C@H]2CCCN(C(=O)c3snnc3C)C2)cc1`: the “% Inhibition” value worked out at 11% and the Z score was -1.54.
As to `O=C(c1ccc(-c2ccc3occc3c2)cc1)N1C[C@H](CO)[C@@H](CO)C1`, the “% Inhibition” value is reported as -9% and the Z score amounted to 1.19.
With `CCn1nncc1C(=O)NC1CCC(F)C1` (stereo unspecified), the “% Inhibition” value is listed as -4% and the Z score turned out to be 0.59.
Regarding `CN(CCc1ccccc1F)Cc1nc(CS(C)(=O)=O)no1`, the “% Inhibition” value is listed as -8% and the Z score is listed as 0.72.
Take `Cc1nc(CCNC(=O)[C@H]2CC(=O)N(c3ccccc3Br)C2)cs1`: the “% Inhibition” value was -5% and the Z score was 0.84.
As for `CC1COCCN1C(=O)C1C2CCCC21` (stereo unspecified), the “% Inhibition” value stood at 28% and the Z score was -3.14.
Regarding `CCn1c(=O)c2sc(N3CCCC3)nc2n(CC(=O)Nc2cccc(OC)c2)c1=O`, the “% Inhibition” value is on record as -19% and the Z score is recorded as 1.64.
The like results for `CCC(C)(C)NC(=O)Cn1ncc(N(C)C)cc1=O` were, in that order, -1% and 0.11.
The like results for `CC(C)[C@H](O)C1(CNCc2c[nH]nc2-c2cccs2)CC1` were, in that order, 4% and -0.62.
The corresponding values for `CC(C)c1scnc1C(=O)N[C@@H](CO)C1CCCC1` are 11% and -1.09.
For the compound `CC(=O)NCC(C)(C)Cc1cccc(Cl)c1`, the “% Inhibition” value is on record as 32% and the Z score was -3.63.

The record behind these values is ChEMBL document CHEMBL4888484, “Replenishing the malaria drug discovery pipeline: Screening and hit evaluation of the MMV Hit Generation Library 1 (HGL1) against asexual blood stage Plasmodium falciparum ,using a nano luciferase reporter read-out” (2022).
